{"source": "the BET-seq Pho4 binding data (Le et al. 2018)", "note": "The list shows a part of the results. The energies were worked out here from pooled read counts, against the library average; single values are noisy.", "data": [{"molecular_target": "T1, Pho4 (S. cerevisiae) (UniProt P07270)", "T1 sequence": "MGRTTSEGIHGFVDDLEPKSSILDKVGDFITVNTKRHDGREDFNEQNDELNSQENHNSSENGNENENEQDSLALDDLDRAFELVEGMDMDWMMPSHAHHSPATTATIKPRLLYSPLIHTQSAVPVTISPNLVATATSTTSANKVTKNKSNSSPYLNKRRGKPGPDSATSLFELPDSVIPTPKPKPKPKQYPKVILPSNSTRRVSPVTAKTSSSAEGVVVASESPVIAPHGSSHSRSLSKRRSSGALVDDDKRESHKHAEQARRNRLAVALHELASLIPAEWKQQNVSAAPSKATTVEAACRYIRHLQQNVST", "test": "relative binding free energy (BET-seq); higher = weaker binding", "conditions": "reference: library average", "units": {"relative binding free energy": "kcal/mol"}, "values": [{"sequence": "ATAGTCACGTGAGGGG", "relative binding free energy": 0.24}, {"sequence": "GGTTACACGTGGTAGA", "relative binding free energy": 0.18}, {"sequence": "AATTACACGTGTAATA", "relative binding free energy": 0.27}, {"sequence": "GAAGTCACGTGGAGCT", "relative binding free energy": 0.21}, {"sequence": "AACGTCACGTGTGATG", "relative binding free energy": 0.24}, {"sequence": "GGAATCACGTGGGTGA", "relative binding free energy": 0.01}, {"sequence": "CTGGGCACGTGGGATC", "relative binding free energy": -0.13}, {"sequence": "CCGGGCACGTGGTGCG", "relative binding free energy": -0.23}, {"sequence": "GACGGCACGTGTGGGG", "relative binding free energy": 0.06}, {"sequence": "GCAGGCACGTGGGTTT", "relative binding free energy": -0.16}, {"sequence": "AGGGTCACGTGTTGTA", "relative binding free energy": 0.12}, {"sequence": "CGGAACACGTGGGTTG", "relative binding free energy": -0.17}, {"sequence": "AGGGTCACGTGTTGGG", "relative binding free energy": 0.21}, {"sequence": "AATTCCACGTGTTTAG", "relative binding free energy": 0.09}, {"sequence": "TTATTCACGTGAGAAG", "relative binding free energy": 0.48}, {"sequence": "AGGATCACGTGGGACG", "relative binding free energy": 0.08}, {"sequence": "ATAATCACGTGGGATG", "relative binding free energy": -0.1}, {"sequence": "TTGTTCACGTGGAGTT", "relative binding free energy": 0.25}, {"sequence": "ATGCACACGTGGGGGG", "relative binding free energy": -0.12}, {"sequence": "GAATTCACGTGTTTCG", "relative binding free energy": 0.38}, {"sequence": "TTAGTCACGTGTCAGT", "relative binding free energy": -0.01}, {"sequence": "TATGTCACGTGTAATT", "relative binding free energy": 0.17}, {"sequence": "TTACGCACGTGGAGTT", "relative binding free energy": -0.07}, {"sequence": "CGAGGCACGTGGGTGG", "relative binding free energy": -0.18}, {"sequence": "TTATACACGTGATGGG", "relative binding free energy": 0.17}, {"sequence": "GGAATCACGTGGTGAT", "relative binding free energy": 0.14}, {"sequence": "TGGGTCACGTGAGGCC", "relative binding free energy": 0.34}, {"sequence": "AGATGCACGTGCGAGG", "relative binding free energy": -0.08}, {"sequence": "TTTGGCACGTGTTGAA", "relative binding free energy": -0.13}, {"sequence": "AGTGGCACGTGAGTTC", "relative binding free energy": 0.07}, {"sequence": "TTCGTCACGTGGATTG", "relative binding free energy": 0.15}, {"sequence": "TGTGGCACGTGATAGG", "relative binding free energy": 0}, {"sequence": "TGGTACACGTGGTGCG", "relative binding free energy": 0}, {"sequence": "TTGTACACGTGCGGGG", "relative binding free energy": 0.07}, {"sequence": "TTTTACACGTGTCGAG", "relative binding free energy": 0.14}, {"sequence": "TAGTTCACGTGAGCTT", "relative binding free energy": 0.22}, {"sequence": "CTTTTCACGTGGTGTT", "relative binding free energy": 0.12}, {"sequence": "GTCGACACGTGGAGGG", "relative binding free energy": 0.18}, {"sequence": "CGGTTCACGTGGAAGG", "relative binding free energy": 0.32}, {"sequence": "TTGTGCACGTGGGTTC", "relative binding free energy": 0.01}, {"sequence": "TTGATCACGTGCTTTA", "relative binding free energy": 0.06}, {"sequence": "TAAGGCACGTGCTGGT", "relative binding free energy": -0.19}, {"sequence": "GGGCACACGTGGTAGA", "relative binding free energy": 0.15}, {"sequence": "GGAGTCACGTGTTGTA", "relative binding free energy": 0.14}, {"sequence": "AGTTACACGTGTATAT", "relative binding free energy": 0}, {"sequence": "TGATACACGTGTGCGG", "relative binding free energy": 0.01}, {"sequence": "ATGGGCACGTGCATGA", "relative binding free energy": -0.11}, {"sequence": "GGTGACACGTGCTGGA", "relative binding free energy": -0.02}, {"sequence": "CGATGCACGTGGGCTT", "relative binding free energy": -0.01}, {"sequence": "TGTTACACGTGAAAGG", "relative binding free energy": 0.21}, {"sequence": "GGTTGCACGTGTGGAG", "relative binding free energy": 0.06}, {"sequence": "TGGAGCACGTGGCAGT", "relative binding free energy": -0.22}, {"sequence": "TACCTCACGTGGGGGT", "relative binding free energy": 0.07}, {"sequence": "CTGGTCACGTGAGTAT", "relative binding free energy": 0.31}, {"sequence": "GAGTACACGTGATTTT", "relative binding free energy": 0.33}, {"sequence": "ATTGTCACGTGTCTTA", "relative binding free energy": 0.12}, {"sequence": "TTTTGCACGTGTGCTG", "relative binding free energy": 0.04}, {"sequence": "TTTCGCACGTGATGTC", "relative binding free energy": 0.07}, {"sequence": "TTAGCCACGTGTATAG", "relative binding free energy": -0.02}, {"sequence": "TAATGCACGTGTCGGA", "relative binding free energy": 0.01}, {"sequence": "GAGGACACGTGGGTAT", "relative binding free energy": 0}, {"sequence": "TGGCTCACGTGTTCGT", "relative binding free energy": 0.15}, {"sequence": "GGGGTCACGTGTGAGG", "relative binding free energy": 0.26}, {"sequence": "AATCGCACGTGATTTT", "relative binding free energy": 0.08}, {"sequence": "TTATCCACGTGTAGTT", "relative binding free energy": 0.03}, {"sequence": "AATTGCACGTGAGGCG", "relative binding free energy": 0.1}, {"sequence": "TTTTGCACGTGGTCCT", "relative binding free energy": -0.08}, {"sequence": "ATGGTCACGTGATGAA", "relative binding free energy": 0.16}, {"sequence": "TCATTCACGTGTGTTA", "relative binding free energy": 0.32}, {"sequence": "TAACGCACGTGGGTGG", "relative binding free energy": -0.32}, {"sequence": "GGGTGCACGTGATTGG", "relative binding free energy": 0.32}, {"sequence": "CCTGTCACGTGTGTGG", "relative binding free energy": 0.02}, {"sequence": "ATCGTCACGTGTCGGG", "relative binding free energy": 0.02}, {"sequence": "AAGGTCACGTGGTACG", "relative binding free energy": -0.02}, {"sequence": "TACGGCACGTGAGGTT", "relative binding free energy": 0.12}, {"sequence": "ATTGTCACGTGACTAT", "relative binding free energy": 0.22}, {"sequence": "TGTTTCACGTGTTTGG", "relative binding free energy": 0.26}, {"sequence": "GTTGGCACGTGTGCAC", "relative binding free energy": -0.02}, {"sequence": "ATCTTCACGTGAGGAG", "relative binding free energy": 0.44}, {"sequence": "ATTGGCACGTGGTAAT", "relative binding free energy": -0.06}, {"sequence": "ATGATCACGTGTGGCG", "relative binding free energy": 0.03}, {"sequence": "TTGGTCACGTGCACTG", "relative binding free energy": 0.09}, {"sequence": "TGCCGCACGTGTTTTT", "relative binding free energy": -0.05}, {"sequence": "GCTTTCACGTGTATGA", "relative binding free energy": 0.35}, {"sequence": "AGGGACACGTGTGATG", "relative binding free energy": 0.04}, {"sequence": "GTGCTCACGTGAGTGC", "relative binding free energy": 0.3}, {"sequence": "TGTATCACGTGGGGGT", "relative binding free energy": 0.05}, {"sequence": "TTGAGCACGTGGTTCG", "relative binding free energy": -0.04}, {"sequence": "ATGTACACGTGGGATT", "relative binding free energy": -0.15}, {"sequence": "CTAAGCACGTGTTTTT", "relative binding free energy": -0.05}, {"sequence": "CTCTGCACGTGTAGGG", "relative binding free energy": 0.02}, {"sequence": "TGTTTCACGTGAGATG", "relative binding free energy": 0.35}, {"sequence": "TAGTTCACGTGTCGGT", "relative binding free energy": 0.27}, {"sequence": "TATGGCACGTGGAAAT", "relative binding free energy": 0.09}, {"sequence": "GGTTTCACGTGCGGAT", "relative binding free energy": 0.27}, {"sequence": "GCGTACACGTGGATGT", "relative binding free energy": 0.1}, {"sequence": "GTTTACACGTGGGTCT", "relative binding free energy": 0.08}, {"sequence": "TGATACACGTGCTTTT", "relative binding free energy": 0.01}, {"sequence": "GGGAGCACGTGGAGAG", "relative binding free energy": -0.08}, {"sequence": "TACGTCACGTGTCTGT", "relative binding free energy": 0.06}, {"sequence": "CTAGGCACGTGGGGTC", "relative binding free energy": -0.24}, {"sequence": "TTGAACACGTGTTTTA", "relative binding free energy": -0.03}, {"sequence": "TTTTCCACGTGGTGTG", "relative binding free energy": -0.04}, {"sequence": "AGAGCCACGTGTGGTA", "relative binding free energy": -0.07}, {"sequence": "TATCGCACGTGTCTGG", "relative binding free energy": -0.08}, {"sequence": "TGTATCACGTGTATCT", "relative binding free energy": -0.04}, {"sequence": "TTTTTCACGTGAGGAG", "relative binding free energy": 0.46}, {"sequence": "GGTTTCACGTGTGTGT", "relative binding free energy": 0.39}, {"sequence": "GGTCACACGTGTGGAG", "relative binding free energy": 0.07}, {"sequence": "GTCTTCACGTGATTGT", "relative binding free energy": 0.32}, {"sequence": "TGAAGCACGTGGTGGG", "relative binding free energy": -0.16}, {"sequence": "GTACTCACGTGTTTAT", "relative binding free energy": 0.28}, {"sequence": "AGTTTCACGTGAATTT", "relative binding free energy": 0.37}, {"sequence": "ACTTGCACGTGTCGGG", "relative binding free energy": 0.15}, {"sequence": "GTGGCCACGTGGTGCA", "relative binding free energy": -0.12}]}]}
